Experimental data taken from PubChem BioAssay AID1508642 (National Center for Advancing Translational Sciences (NCATS), 2021).
The whole screen tested about 43,000 compounds, of which about 200 (0.47%) were called active. Another 12% or so got no clear call; they are omitted. The call rests on the fitted dose curve; in most records, active means well fitted cell-killing curve with a large enough effect; inconclusive means small, poorly fitted or top-dose-only effect, or effect the other way; inactive means flat fitted curve, though single readings scatter. The list shows a part of the results.

Assay: Cell viability qHTS assay in S16 Pmp22-F2sN cells; further: nearly all actives have a fitted effect of over 65% in size
Conditions: S16 Pmp22-F2sN Schwann cells viability, CellTiter-Glo, 24 h; series mostly up to 57.5 µM; activity change, negative = cytotoxicity: at the top concentration
In short: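 Used to flag compounds lowering reporter output through toxicity, this quantitative HTS measures ATP-based CellTiter-Glo luminescence in S16 Pmp22-F2sN Schwann cells after 24 h compound exposure at 37C.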
On the % scale 0 is the no-effect control and ±100 the full control effect.

SMILES | activity change, negative = cytotoxicity
CCc1nnc2c(Nc3ccccc3Br)nc3ccccc3n12 | inactive: -0.0239%
Cc1cccc(N2C(=O)N(Cc3cccc(C#N)c3)c3ccccc3S2(=O)=O)c1 | inactive: 19%
O=C(Cn1c(=O)n(Cc2ccc(C(=O)NCc3ccc4c(c3)OCO4)cc2)c(=O)c2ccccc21)Nc1ccccc1F | inactive: 3.32%
CCCNC(=O)c1c(NC(=O)c2ccccc2)sc2c1CCC(C(C)(C)C)C2 (stereo unspecified) | inactive: -8.18%
COc1ccc(CCNC(=O)CS(=O)(=O)Cc2nc(-c3cccc(Cl)c3)oc2C)cc1OC | inactive: 5.75%
COc1ccc(CNC(=O)c2cccn2-c2nnc(N3CCCCC3)s2)c(OC)c1 | inactive: -1.16%
COc1ccc2c(c1)c1c(c(=O)n(-c3cccc(C)c3)c(=O)n1CC(=O)NCc1ccc(C)cc1)n2C | inactive: -1.8%
CC(C)(C)c1ccc(C(=O)NC(Cc2c[nH]c3ccccc23)C(=O)OCC(=O)c2ccc(Br)cc2)cc1 (stereo unspecified) | inactive: -0.339%
CC(C)N(Cc1nc(-c2ccc(Cl)cc2)no1)C(=O)c1ccco1 | inactive: 27.8%
COc1ccc(-n2ccn(CC(=O)Nc3ccc(C)cc3C)c(=O)c2=O)cc1 | inactive: 8.32%
COc1ccc(CNC(=O)c2sc3nc4n(c(=O)c3c2C)CCC4)cc1 | inactive: 11.3%
CCCc1nnc(NC(=O)C(CC)Sc2nnc3c4ccccc4n(C)c3n2)s1 (stereo unspecified) | inactive: 0.256%
Cc1ccc(C(C)C)c(OCC(=O)Nc2ccc(O)c(-c3nc4cc(Cl)ccc4o3)c2)c1 | inactive: 6.37%
COC(=O)c1c(C)sc(-c2c(-c3ccc(OC)c(F)c3)[nH]c3c2c(=O)n(C)c(=O)n3C)c1O | inactive: 14.7%
CC(C)C(=O)Nc1nnc(S(=O)(=O)N2c3ccccc3CC2C)s1 (stereo unspecified) | inactive: -1.28%
COc1cccc(C(c2sc3nc(-c4ccco4)nn3c2O)N2CCN(C)CC2)c1 (stereo unspecified) | inactive: 18.1%
COc1ccc(CNC(=O)CN(C)S(=O)(=O)c2ccc3c(c2)c(=O)n(C)c(=O)n3C)cc1 | inactive: 6.9%
CCS(=O)(=O)Nc1ccc(-c2cn3c(C)csc3n2)cc1 | inactive: 7.51%
COc1ccc(C(=O)Oc2cc(-c3ccc(OC)c(OC)c3)cc(=O)c3c(C)oc(C)c23)cc1 | inactive: -9.06%
CCOC(=O)c1c(-c2ccccc2)oc2ccc(OCc3cccc(Br)c3)cc12 | inactive: 8.58%
O=C(Cn1cc(C(=O)c2cccs2)c2ccccc21)Nc1ccc(Br)cc1 | inactive: -8.18%
CCN(c1cccc(C)c1)S(=O)(=O)c1c(C)nc2sc(C)cn2c1=O | inactive: 11.2%
COc1ccccc1CNC(=O)C1CCN(c2nnc(C)c3c(C)n(-c4ccccc4)nc23)CC1 | inactive: 3.69%
CC(C)CC(=O)OCc1cc(=O)n2nc(C3CCCCC3)sc2n1 | inactive: 1.1%
Cc1ccc2c(=O)cc(C(=O)Nc3c(C(=O)c4ccc(F)cc4)oc4ccccc34)oc2c1C | inactive: 23.1%
COc1ccc(NC(=O)CC(C)S(=O)(=O)c2cc3c(cc2C)NC(=O)CO3)cc1OC (stereo unspecified) | inactive: 4.13%
